For one assay, the target named is T1, FcRn (UniProt P55899 fragment; P61769 fragment, limits assumed).
T1 construct: Directly immobilised on the BIAcore chip by amine coupling; also called neonatal Fc receptor
The experiment in a line: BIAcore 3000 steady-state, FcRn amine-coupled to the chip, antibody flowed.

Assay [1] deals with T2, FcgammaRIIIa genotype variant 158V (UniProt P08637 fragment).
T2 construct: the tag is not described; also called Fc-gamma-RIIIa (variant 158V); FcgammaRIIIA 158V
The assay is described as follows: BIAcore 3000 steady-state, FcgammaRIIIa 158V captured on anti-histidine chip, antibody flowed. On the technique in general: In SPR one partner is held on a chip, and binding of the other changes the refractive index at the surface.

FcRn, sequence (P55899 24-297 limits assumed, form in doubt, chain 1 of 2): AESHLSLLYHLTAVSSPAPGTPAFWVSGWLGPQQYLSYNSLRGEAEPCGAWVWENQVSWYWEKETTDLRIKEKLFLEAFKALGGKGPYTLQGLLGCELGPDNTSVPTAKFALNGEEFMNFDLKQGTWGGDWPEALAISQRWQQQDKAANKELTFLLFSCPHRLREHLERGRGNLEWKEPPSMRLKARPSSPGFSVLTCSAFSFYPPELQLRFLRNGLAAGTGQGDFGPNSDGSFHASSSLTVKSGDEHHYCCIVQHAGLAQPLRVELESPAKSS
FcRn, sequence (P61769 21-119 limits assumed, form in doubt, chain 2 of 2, further chain): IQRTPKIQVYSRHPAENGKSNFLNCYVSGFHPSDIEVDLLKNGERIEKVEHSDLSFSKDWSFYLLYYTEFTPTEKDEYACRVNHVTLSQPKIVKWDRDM
T2 sequence (P08637 other isoform, or with tags, fused parts or gaps mutant): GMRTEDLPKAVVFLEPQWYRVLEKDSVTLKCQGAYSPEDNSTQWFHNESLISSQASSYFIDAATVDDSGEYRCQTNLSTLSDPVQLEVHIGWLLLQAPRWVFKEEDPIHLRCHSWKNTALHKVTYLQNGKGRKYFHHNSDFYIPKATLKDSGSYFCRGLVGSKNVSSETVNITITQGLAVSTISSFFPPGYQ

B1: anti-EGFR FlexiMab antibody in its mAb-Val format (all native interchain cysteines substituted by valine) (antibody)
light: DIQMTQSPSSLSASVGDRVTITCQASQDISNYLNWYQQKPGKAPKLLIYDASNLETGVPSRFSGSGSGTDFTFTISSLQPEDIATYFCQHFDHLPLAFGGGTKVEIKRTVAAPSVFIFPPSDEQLKSGTASVVCLLNNFYPREAKVQWKVDNALQSGNSQESVTEQDSKDSTYSLSSTLTLSKADYEKHKVYACEVTHQGLSSPVTKSFNRGEV
heavy: QVQLQESGPGLVKPSETLSLTCTVSGGSVSSGDYYWTWIRQSPGKGLEWIGHIYYSGNTNYNPSLKSRLTISIDTSKTQFSLKLSSVTAADTAIYYCVRDRVTGAFDIWGQGTMVTVSSASTKGPSVFPLAPSSKSTSGGTAALGCLVKDYFPEPVTVSWNSGALTSGVHTFPAVLQSSGLYSLSSVVTVPSSSLGTQTYICNVNHKPSNTKVDKRV[omitted - human IgG1 Fc with C220V C226V C229V (EU numbers)]
modifications: threonine at position 225 (EU) modified post-translationally by a potential O-glycosylation
notes: Human IgG1 kappa without interchain disulphide bonds, held together non-covalently; expressed in HEK293F cells; also called anti-EGFR (mAb-Val format); anti-EGFR FlexiMab antibody variant
In general, Kd refers to the concentration at which binding is half-saturated. Read a high Kd as a looser complex. B1: in the assay with FcRn, the Kd turned out to be 33.1 nM. The binding result in assay [1] is given as “no binding”.

These data come from patent US20170183408A1 (AstraZeneca / MedImmune, published 2017).
